# Laboratory results taken from the supplement of paper PMC8728848.
# This is one part of the list.
# B1: MAL-II (Maackia amurensis), P93248 (protein)
# chain: ATSNSKPTQVLLATFLTFFFLLLNNVNSSDELSFTINNFVPNEADLLFQGEASVSSTGVLQLTRVENGQPQQYSVGRALYAAPVRIWDNTTGSVASFSTSFTFVVKAPNPTITSDGLAFFLAPPDSQIPSGRVSKYLGLFNNSNSDSSNQIVAVEFDTYFGHSYDPWDPNYRHIGIDVNGIESIKTVQWDWINGGVAFATITYLAPNKTLIASLVYPSNQTSFIVAASVDLKEILPEWVRVGFSAATGYPTQVETHDVLSWSFTSTLEANSDAATENNVHIARYTA
# Tests used:
# Experiment in all cases: glycan array binding signal (z-score within array); higher = stronger binding
# Settings in all cases: glycan notation: IUPAC condensed, linker removed
# [1] = target: GlcNAc(b1-3)Gal(b1-4)Glc
# In short: (§1)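 Glycan array binding is given as a within-array Z-score, which can be read as non-binding when negative. The arrays, 3228 of them, came from the Consortium for Functional Glycomics database and were retained only where the protein sequence was available. Z-scores were averaged across arrays of the same protein sequence at different concentrations or buffers and across linkers.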
# [2] = target: GlcNAc(b1-3)Gal(b1-4)GlcNAc
# In short: as §1
# [3] = target: GlcNAc(b1-3)Gal(b1-4)GlcNAc(b1-2)Man(a1-3)[GlcNAc(b1-3)Gal(b1-4)GlcNAc(b1-2)Man(a1-6)]Man(b1-4)GlcNAc(b1-4)GlcNAc
# In short: as §1
# [4] = target: GlcNAc(b1-3)Gal(b1-4)GlcNAc(b1-2)Man(a1-3)[GlcNAc(b1-3)Gal(b1-4)GlcNAc(b1-2)Man(a1-6)]Man(b1-4)GlcNAc(b1-4)[Fuc(a1-6)]GlcNAc
# In short: as §1
# [5] = target: GlcNAc(b1-3)Gal(b1-4)GlcNAc(b1-2)[GlcNAc(b1-3)Gal(b1-4)GlcNAc(b1-6)]Man(a1-6)[GlcNAc(b1-3)Gal(b1-4)GlcNAc(b1-2)Man(a1-3)]Man(b1-4)GlcNAc(b1-4)GlcNAc
# In short: as §1
# [6] = target: GlcNAc(b1-3)Gal(b1-4)GlcNAc(b1-3)Gal(b1-4)GlcNAc
# In short: as §1
# [7] = target: GlcNAc(b1-3)Gal(b1-4)GlcNAc(b1-3)Gal(b1-4)GlcNAc(b1-2)Man(a1-3)[GlcNAc(b1-3)Gal(b1-4)GlcNAc(b1-3)Gal(b1-4)GlcNAc(b1-2)Man(a1-6)]Man(b1-4)GlcNAc(b1-4)GlcNAc
# In short: as §1
# [8] = target: GlcNAc(b1-3)Gal(b1-4)GlcNAc(b1-3)Gal(b1-4)GlcNAc(b1-2)Man(a1-3)[GlcNAc(b1-3)Gal(b1-4)GlcNAc(b1-3)Gal(b1-4)GlcNAc(b1-2)Man(a1-6)]Man(b1-4)GlcNAc(b1-4)[Fuc(a1-6)]GlcNAc
# In short: as §1
# [9] = target: GlcNAc(b1-3)Gal(b1-4)GlcNAc(b1-3)Gal(b1-4)GlcNAc(b1-2)[GlcNAc(b1-3)Gal(b1-4)GlcNAc(b1-3)Gal(b1-4)GlcNAc(b1-6)]Man(a1-6)[GlcNAc(b1-3)Gal(b1-4)GlcNAc(b1-3)Gal(b1-4)GlcNAc(b1-2)Man(a1-3)]Man(b1-4)GlcNAc(b1-4)[Fuc(a1-6)]GlcNAc
# In short: as §1
# [10] = target: GlcNAc(b1-3)Gal(b1-4)GlcNAc(b1-3)Gal(b1-4)GlcNAc(b1-3)Gal(b1-4)GlcNAc(b1-2)Man(a1-3)[GlcNAc(b1-3)Gal(b1-4)GlcNAc(b1-3)Gal(b1-4)GlcNAc(b1-3)Gal(b1-4)GlcNAc(b1-2)Man(a1-6)]Man(b1-4)GlcNAc(b1-4)GlcNAc
# In short: as §1
# [11] = target: GlcNAc(b1-3)Gal(b1-4)GlcNAc(b1-3)Gal(b1-4)GlcNAc(b1-3)Gal(b1-4)GlcNAc(b1-2)Man(a1-3)[GlcNAc(b1-3)Gal(b1-4)GlcNAc(b1-3)Gal(b1-4)GlcNAc(b1-3)Gal(b1-4)GlcNAc(b1-2)Man(a1-6)]Man(b1-4)GlcNAc(b1-4)[Fuc(a1-6)]GlcNAc
# In short: as §1
# [12] = target: GlcNAc(b1-3)Gal(b1-4)GlcNAc(b1-3)Gal(b1-4)GlcNAc(b1-3)Gal(b1-4)GlcNAc(b1-2)[GlcNAc(b1-3)Gal(b1-4)GlcNAc(b1-3)Gal(b1-4)GlcNAc(b1-3)Gal(b1-4)GlcNAc(b1-6)]Man(a1-6)[GlcNAc(b1-3)Gal(b1-4)GlcNAc(b1-3)Gal(b1-4)GlcNAc(b1-3)Gal(b1-4)GlcNAc(b1-2)Man(a1-3)]Man(b1-4)GlcNAc(b1-4)[Fuc(a1-6)]GlcNAc
# In short: as §1
# [13] = target: GlcNAc(b1-3)Gal(b1-4)GlcNAc(b1-3)Gal(b1-4)GlcNAc(b1-3)Gal(b1-4)GlcNAc(b1-3)Gal(b1-4)GlcNAc(b1-2)Man(a1-3)[GlcNAc(b1-3)Gal(b1-4)GlcNAc(b1-3)Gal(b1-4)GlcNAc(b1-3)Gal(b1-4)GlcNAc(b1-3)Gal(b1-4)GlcNAc(b1-2)Man(a1-6)]Man(b1-4)GlcNAc(b1-4)GlcNAc
# In short: as §1
# [14] = target: GlcNAc(b1-3)Gal(b1-4)GlcNAc(b1-3)Gal(b1-4)GlcNAc(b1-3)Gal(b1-4)GlcNAc(b1-3)Gal(b1-4)GlcNAc(b1-2)Man(a1-3)[GlcNAc(b1-3)Gal(b1-4)GlcNAc(b1-3)Gal(b1-4)GlcNAc(b1-3)Gal(b1-4)GlcNAc(b1-3)Gal(b1-4)GlcNAc(b1-2)Man(a1-6)]Man(b1-4)GlcNAc(b1-4)[Fuc(a1-6)]GlcNAc
# In short: as §1
# [15] = target: GlcNAc(b1-3)Gal(b1-4)GlcNAc(b1-3)Gal(b1-4)GlcNAc(b1-3)Gal(b1-4)GlcNAc(b1-3)Gal(b1-4)GlcNAc(b1-2)[GlcNAc(b1-3)Gal(b1-4)GlcNAc(b1-3)Gal(b1-4)GlcNAc(b1-3)Gal(b1-4)GlcNAc(b1-3)Gal(b1-4)GlcNAc(b1-6)]Man(a1-6)[GlcNAc(b1-3)Gal(b1-4)GlcNAc(b1-3)Gal(b1-4)GlcNAc(b1-3)Gal(b1-4)GlcNAc(b1-3)Gal(b1-4)GlcNAc(b1-2)Man(a1-3)]Man(b1-4)GlcNAc(b1-4)[Fuc(a1-6)]GlcNAc
# In short: as §1
# [16] = target: GlcNAc(b1-3)Gal(b1-4)GlcNAc(b1-3)Gal(b1-4)GlcNAc(b1-3)GalNAc
# In short: as §1
# [17] = target: GlcNAc(b1-3)Gal(b1-4)GlcNAc(b1-3)GalNAc
# In short: as §1
# [18] = target: GlcNAc(b1-3)Gal(b1-4)GlcNAc(b1-3)[GlcNAc(b1-3)Gal(b1-4)GlcNAc(b1-3)]GalNAc
# In short: as §1
# [19] = target: GlcNAc(b1-3)Gal(b1-4)GlcNAc(b1-6)[Gal(b1-3)]GalNAc
# In short: as §1
# [20] = target: GlcNAc(b1-3)Gal(b1-4)GlcNAc(b1-6)[GlcNAc(b1-3)Gal(b1-3)]GalNAc
# In short: as §1
# [21] = target: GlcNAc(b1-3)Gal(b1-4)GlcNAc(b1-6)[GlcNAc(b1-3)]Gal(b1-4)GlcNAc
# In short: as §1
# [22] = target: GlcNAc(b1-3)GalNAc
# In short: as §1
# [23] = target: GlcNAc(b1-3)Man
# In short: as §1
# [24] = target: GlcNAc(b1-3)[GlcNAc(b1-4)][GlcNAc(b1-6)]GlcNAc
# In short: as §1
# [25] = target: GlcNAc(b1-3)[GlcNAc(b1-6)]Gal(b1-4)GlcNAc
# In short: as §1
# [26] = target: GlcNAc(b1-3)[GlcNAc(b1-6)]GalNAc
# In short: as §1
# [27] = target: GlcNAc(b1-3)[GlcNAc(b1-6)]GlcNAc(b1-4)GlcNAc
# In short: as §1
# [28] = target: GlcNAc(b1-4)Gal(b1-4)GlcNAc
# In short: as §1
# [29] = target: GlcNAc(b1-4)GlcNAc
# In short: as §1
# [30] = target: GlcNAc(b1-4)GlcNAc(b1-4)GlcNAc
# In short: as §1
# [31] = target: GlcNAc(b1-4)GlcNAc(b1-4)GlcNAc(b1-4)GlcNAc(b1-4)GlcNAc
# In short: as §1
# [32] = target: GlcNAc(b1-4)GlcNAc(b1-4)GlcNAc(b1-4)GlcNAc(b1-4)GlcNAc(b1-4)GlcNAc
# In short: as §1
# [33] = target: GlcNAc(b1-4)[GlcNAc(b1-6)]GalNAc
# In short: as §1
# [34] = target: GlcNAc(b1-6)Gal(b1-4)GlcNAc
# In short: as §1
# [35] = target: GlcNAc(b1-6)GalNAc
# In short: as §1
# [36] = target: GlcNAc3Prop(b1-4)GlcNAc
# In short: as §1
# [37] = target: GlcNAc6S(b1-3)Gal(b1-4)GlcNAc
# In short: as §1
binder,measurement,setting,value
B1,glycan array binding signal (z-score),[1],-0.167
same,glycan array binding signal (z-score),[2],-0.194
same,glycan array binding signal (z-score),[3],0.06
same,glycan array binding signal (z-score),[4],0.484
same,glycan array binding signal (z-score),[5],0.478
same,glycan array binding signal (z-score),[6],-0.177
same,glycan array binding signal (z-score),[7],0.13
same,glycan array binding signal (z-score),[8],0.431
same,glycan array binding signal (z-score),[9],0.696
same,glycan array binding signal (z-score),[10],-0.387
same,glycan array binding signal (z-score),[11],0.385
same,glycan array binding signal (z-score),[12],0.009
same,glycan array binding signal (z-score),[13],0.547
same,glycan array binding signal (z-score),[14],-0.205
same,glycan array binding signal (z-score),[15],-0.371
same,glycan array binding signal (z-score),[16],0.132
same,glycan array binding signal (z-score),[17],-0.159
same,glycan array binding signal (z-score),[18],-0.195
same,glycan array binding signal (z-score),[19],-0.173
same,glycan array binding signal (z-score),[20],-0.245
same,glycan array binding signal (z-score),[21],-0.028
same,glycan array binding signal (z-score),[22],-0.227
same,glycan array binding signal (z-score),[23],-0.225
same,glycan array binding signal (z-score),[24],-0.201
same,glycan array binding signal (z-score),[25],-0.249
same,glycan array binding signal (z-score),[26],-0.162
same,glycan array binding signal (z-score),[27],-0.216
same,glycan array binding signal (z-score),[28],-0.281
same,glycan array binding signal (z-score),[29],-0.219
same,glycan array binding signal (z-score),[30],-0.135
same,glycan array binding signal (z-score),[31],-0.044
same,glycan array binding signal (z-score),[32],-0.147
same,glycan array binding signal (z-score),[33],-0.238
same,glycan array binding signal (z-score),[34],-0.209
same,glycan array binding signal (z-score),[35],-0.213
same,glycan array binding signal (z-score),[36],-0.219
same,glycan array binding signal (z-score),[37],-0.167
